# The other results are listed elsewhere or left out. For part of these data: At the low end of the ranking, values are background and their order means little. For part of these data: Measured with an extract: partners may take part in the binding.
# Columns and labels:
# Details in all cases: 20 mM HEPES pH 7.9, 100 mM NaCl, 1 mM DTT, 0.2 mg/mL BSA, 0.02% Triton X-100, 2% milk, 0.4 mg/mL salmon testes DNA; 1 h; temperature not stated; high values mean tight binding; double strand, one strand shown; sequences stand for … in GCCTAGCAC…GTGCTAGGTCTTGATTCGCTTGACGCTGCTG
# PU.1 (IVT) = PU.1 (IVT) (UniProt P17947); test: protein-binding microarray (PBM)
# [1] = biological target: PU.1 (endogenous, THP-1 nuclear extract) (UniProt P17947); test: nuclear extract protein-binding microarray (nextPBM)
# [2] = biological target: T1, FLI1 (endogenous, THP-1 nuclear extract) (UniProt Q01543); test: as above
# T1 sequence: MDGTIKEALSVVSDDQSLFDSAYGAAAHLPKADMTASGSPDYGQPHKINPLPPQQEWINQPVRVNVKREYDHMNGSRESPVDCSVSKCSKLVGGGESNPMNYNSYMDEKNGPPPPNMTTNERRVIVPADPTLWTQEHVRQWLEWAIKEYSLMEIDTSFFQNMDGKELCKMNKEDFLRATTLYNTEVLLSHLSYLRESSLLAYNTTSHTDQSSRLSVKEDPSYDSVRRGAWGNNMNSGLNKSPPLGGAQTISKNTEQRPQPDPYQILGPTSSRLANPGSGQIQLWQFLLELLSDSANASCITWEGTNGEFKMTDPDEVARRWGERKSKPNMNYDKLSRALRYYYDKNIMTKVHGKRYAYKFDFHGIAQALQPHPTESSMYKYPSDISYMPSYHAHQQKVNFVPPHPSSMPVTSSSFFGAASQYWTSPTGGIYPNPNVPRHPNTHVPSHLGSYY
Sequence,binding signal (PU.1 (IVT)) [z-score],binding signal [1] [z-score],binding signal [2] [z-score]
AAAAAGGGGAAGTGACTTTC,8.66,7.69,4.47
TCAGTGAGGAAGTGAGATAA,3.62,3.64,2.21
GAGGAGAGGAAGTGGGTAAT,3.75,3.91,3.1
AGAGAGAGGAAGTAATTACT,5.74,4.92,2.87
CAAAGGGGGAAGTGACTGGC,5.1,5.68,2.42
GAGAAAGGGAAGTGGGTGGG,4.21,4.74,2.28
AGGAAGGGGAAGTGCTGAGC,5.36,6.25,3.08
GAAAATAGGAAGTCCCATAG,4.72,4.82,1.88
ACAGAGAGGAACTGCAGGCT,1.95,1.99,0.343
CGAAAGGGAAAGTGCTAAAC,0.333,0.14,0.556
GAAAACATGAAGTCCCATAG,0.769,0.537,0.0829
GAAAAGAGGAAATGGGGTGG,5.39,6.13,3.05
AGAAAGAGGAAGTGCCTCTT,8.4,7.53,4.22
AGAAAGAGGAAGTTCCCGTC,8.56,7.43,4.3
AAAAAAAGGAAGTCAGTGTT,6.32,6.14,2.72
TGCAGGGGGAAGTGACTGAT,3.63,3.93,1.85
AAATTGAGGAAGTGCAGAGA,7.31,7.14,3.33
TGAAAGAGGGAGTGCAACCA,-0.306,-0.258,-1.62
CGGAAGAGGAAGTAGCTGAA,6.49,6.76,5.23
CCAAAGCGGAAGTGTCGGGC,6.38,6.46,5.05
CAGAAAGGGAAGTCAGAGAG,3.53,4.09,1.76
GGAAGAGGGAAGTGGAAACC,4.06,4.47,2.15
CAGAGGGGGAAGTGCCAGGC,3.55,3.86,1.55
GAAAACAGGAACTGCAAATA,6,6.17,2.74

Sequence,binding signal (PU.1 (IVT)) [z-score],binding signal [1] [z-score],binding signal [2] [z-score]
TTTTTGAGGAACTGTCATAT,4.42,4.02,1.07
AAGAAAGGGAAGTCAGACCA,4.06,4.31,1.65
CAAATGTGGAACTGATGCGG,2.29,2.46,0.306
CTGGTGAGGAAGTGTGAGAC,2.86,2.97,1.99
AGAAAGGGGAAGAGGCTAGG,3.74,4.35,1.15
CAAAAGGGGAAGTCATTGTT,7.51,7.37,3.06
GAAAACAGGAAGACCCATAG,3.01,3.32,2.08
AAAAAGGGGAAGTGACATAA,8.47,7.44,3.71
TAGATGAGGAAGTACTGTGC,6.57,6.46,2.79
AAAAAGAGGAAGTGGTACAA,8.76,7.42,4.35
TGAAAGAGGAAGTGTAACCA,7.2,7.12,3.69
GATAAGTGGAAGTCCTCTGT,1.98,1.84,1.17
GAAGAGGGGAAGTGGGACCA,3.46,3.57,1.92
GATAAGAGGAAGTCCTCCGT,5.74,6.34,2.91
TAAAAGAGGAAATGTGATGA,4.59,4.5,2.61
CTAAAGAGGAAGTGGGATGC,6.64,6.93,3.69
GAAAGGAGGAAGTGGGAAGG,5.77,6.39,3.03
ACAAAGAGGAAGTGCAGATC,6.7,6.92,3.62
TCGGTAAGGAAGTGCAGAAA,2.15,2.4,1.72
AGAGAGAGGAAGTGGGATGG,4.41,4.45,2.96
TCAAAGGGGAAGTGAGATTT,5.86,6.5,2.96
GATAAGAGGAACTCTGCAGG,3.27,3.48,1.13
GGAAAGAGGAACTGAAAAGG,6.31,6.72,2.28
AAAAAAGGGAAGTGAAGTAC,7.2,6.9,2.78

Sequence,binding signal (PU.1 (IVT)) [z-score],binding signal [1] [z-score],binding signal [2] [z-score]
CAAAAGAGGAACTGGATGGT,6.98,6.8,3.1
GCCAGGAGGAAGTGGCAACT,3.62,4.15,2.51
AAAAAAAGGAACTGGATAGA,4.08,4,1.42
GGAAAGAGGAAGTCAAACTA,7.68,7.38,4.45
CAAAAGAGGAAGTCAAGCTG,7.88,7.38,4.12
GAAAACAGGAAGTCCGATAG,7.15,6.81,4.6
TAAAAAGGGAAGTCATGACC,5.88,6.16,1.96
GAGAAGAGGAAGTAGAACAA,6.62,6.81,3.28
GAAAACAGGCAGTCCCATAG,0.145,0.292,-0.0637
ACAAAGGGGAAGTAGCAGGT,7,6.79,3.52
CAAATGAGAAACTGATGCGG,0.374,0.135,-0.412
AAAAAGAGGAAGTCAAATTA,8.57,7.5,4.13
TAAAGAGGGAAGTGGGAGCC,3.74,4.56,1.7
GATAAGAGGAAGTCCTCTGG,5.89,6.47,2.8
ACAAACAGGAACTGTGCCCC,2.92,3.35,1.69
CAAATGAGGAACGGATGCGG,2.7,2.61,2.53
AGAAAGAGGAAGTGACTCAG,8.06,7.42,4.41
TGTAAGGGGAAGTGAGAAGA,4.5,5.36,2.24
TCAAAGCAGAAGTGATAGCT,2.8,2.9,0.596
AGAAAAAGGAAGTCGGCCTC,5.49,5.54,2.7
GGAGAGAGGAAGTGCAGAGT,4.14,4.27,2.72
GAAAACAGGAAGTCCTATAG,7.14,7.39,5.04
GAGAGGAGGAAGTGTTTATG,4.59,4.1,2.67
CCAAGCAGGAAGTGGGGAGG,2.53,2.73,4.16

Sequence,binding signal (PU.1 (IVT)) [z-score],binding signal [1] [z-score],binding signal [2] [z-score]
GTGGAGAGGAAGTGTTTGGG,3.46,3.58,2.86
CAAATGAGGAAGTCATTTGT,7.84,7.45,3.54
CAAATGAGGAACTGATGCAG,5.72,6.2,2.07
AGAAGGAGGAAGTGACCTGC,5.9,6.45,2.93
GAAAAGCGGAAGTGGTGTGG,8.61,7.26,5.64
TGAAAGAGGAAGTGGAGATT,7.49,7.24,3.85
CAAATGAGGATCTGATGCGG,0.781,0.889,-0.432
ACATTCAGGAAGTGAAGTCA,3.49,3.38,3.99
TAAATGAGGAAGTGAAGAAA,7.86,7.06,4.58
CTACTGAGGAAGTGTAAGCC,2.48,2.8,1.58
GTTTTGAGGAAGTCTTAAAA,5.55,5.82,2.29
ACAAAAAGGAACTGTGCCGC,1.9,1.82,0.856
AAAAAAAGAAACTGGCTAGA,-0.279,-0.245,0.232
GAAAAGAGGAAGTCAATTTG,8.54,7.56,4.55
GGAAAGGGGAAGTCTACTGG,6.46,6.83,2.68
AGTTGGAGGAAGTGGCACTT,2.78,3.15,2.18
AAATAAAGGAAGTGAAACTC,4.59,6.85,3.54
ATAGGGAGGAAGTGAAGATC,3.37,3.33,2.61
TGTGAGAGGAAGTGCTAGTT,4.42,4.51,2.91
AGAAGAAGGAAGTACTGTGG,4.76,4.85,2.42
TGGGAGGGGAAGTGTGAGGC,3.28,2.97,1.77
AGAGAAAGGAAGTGGCCTTT,2.65,2.5,2.53
ACAAAGAGGAAGTCCAAGTA,6.13,6.81,3.07
CAAAAGAGGAAGTGAAGCTG,8.37,7.06,4.32

Sequence,binding signal (PU.1 (IVT)) [z-score],binding signal [1] [z-score],binding signal [2] [z-score]
CGAAAGAGGAAGTGCTAAAC,8.01,7.29,3.98
GAAAAGGGGAAGTGTGCTAC,7.48,6.93,3.44
CGAAAGGGGACGTGCTAAAC,0.374,0.362,-0.365
GAAAGGAGGAACTGTCCTTT,4.32,4.07,1.58
AAAAAAAGGAAGTGGTGGTT,6.87,6.71,3.6
AGGAAGAGGAAGTGGGGGCT,6.08,6.31,3.64
TCATAGAGGAAGTGACACTG,4.52,5.19,3.02
GGAAACAGGAAGTGAGGGGC,6.89,6.85,5.2
AAAAGGAGGAAGTGATCAAA,6.28,6.56,3.45
AGAAAGAGGAAGTCACAAGG,7.68,7.06,3.47
AAAATGAGGAACTGTGAAAT,6.41,6.83,1.62
AAAATGAGGAACTGGAAGGT,6.61,6.78,2.4
CAAATAAGGAACTGATGCGG,4.45,4.09,0.823
AAACAAAGGAACTGGCTAGA,0.473,1.21,0.692
GAAATGAGGAACTGATGCGG,6.62,6.33,2.49
TAAAACAGGAAGTGAGAGGG,6.94,6.98,5.22
TAGGAGAGGAACTGGAGTGA,2.05,2.08,0.803
CAAAAGCAGAAGTGGCCAGG,5.04,6.36,1.6
CCTAAGAGGAACTCCCTCAT,2.89,3.19,0.898
CAACTGAGGAACTGATGCGG,1.56,1.49,0.502
AAAAAAAGGTACTGGCTAGA,0.305,0.133,-0.319
TGGAAAAGGAAGTACTGTGA,3.75,3.3,2.13
GAAAAAGGGAAGTGGCTCAT,7.13,7.13,2.76
TAAAAGAGGAAGTCCTCTTG,8.14,7.3,3.91

# — publication PMC6451091
